The whole screen tested about 350,000 compounds, of which about 31,000 (8.9%) were called active. The inconclusive results got no clear call from the source; some entries with a clear call stand among them for comparison. Calls follow the shape of the dose curve; as a rule, active = well fitted inhibition curve with a large enough effect; inconclusive = small, poorly fitted or top-dose-only effect; inactive = no such curve, though single readings can be large or run the other way. A potency beside an inconclusive call is a rough fit, not a confirmed value.
Target: Histone-lysine N-methyltransferase EHMT2 (Homo sapiens) (UniProt Q96KQ7)
Experiment: qHTS Assay for Inhibitors of Histone Lysine Methyltransferase G9a; also: nearly all actives have a fitted effect of over 75% in size
Conditions: G9a H3K9 monomethylation, AlphaScreen, 2 h; activity, negative = inhibition: at 59 µM (top of the series) unless noted
How it was run: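 Quantitative HTS format: methyltransferase activity on a biotin-tagged H3K9 peptide is measured by AlphaScreen, using a rabbit anti-monomethyl-H3K9 antibody with streptavidin donor and anti-IgG acceptor beads. Final levels are 20 nM enzyme, 500 nM peptide, 20 uM SAM; 2 h RT.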
% is scaled to controls: 0 for no effect and ±100 for the full control effect; potency is read from the fitted curve at half-maximal effect; tags tell the direction and shape of the fitted curve.

Sequence of UniProt Q96KQ7 (Q96KQ7 whole entry, looked up): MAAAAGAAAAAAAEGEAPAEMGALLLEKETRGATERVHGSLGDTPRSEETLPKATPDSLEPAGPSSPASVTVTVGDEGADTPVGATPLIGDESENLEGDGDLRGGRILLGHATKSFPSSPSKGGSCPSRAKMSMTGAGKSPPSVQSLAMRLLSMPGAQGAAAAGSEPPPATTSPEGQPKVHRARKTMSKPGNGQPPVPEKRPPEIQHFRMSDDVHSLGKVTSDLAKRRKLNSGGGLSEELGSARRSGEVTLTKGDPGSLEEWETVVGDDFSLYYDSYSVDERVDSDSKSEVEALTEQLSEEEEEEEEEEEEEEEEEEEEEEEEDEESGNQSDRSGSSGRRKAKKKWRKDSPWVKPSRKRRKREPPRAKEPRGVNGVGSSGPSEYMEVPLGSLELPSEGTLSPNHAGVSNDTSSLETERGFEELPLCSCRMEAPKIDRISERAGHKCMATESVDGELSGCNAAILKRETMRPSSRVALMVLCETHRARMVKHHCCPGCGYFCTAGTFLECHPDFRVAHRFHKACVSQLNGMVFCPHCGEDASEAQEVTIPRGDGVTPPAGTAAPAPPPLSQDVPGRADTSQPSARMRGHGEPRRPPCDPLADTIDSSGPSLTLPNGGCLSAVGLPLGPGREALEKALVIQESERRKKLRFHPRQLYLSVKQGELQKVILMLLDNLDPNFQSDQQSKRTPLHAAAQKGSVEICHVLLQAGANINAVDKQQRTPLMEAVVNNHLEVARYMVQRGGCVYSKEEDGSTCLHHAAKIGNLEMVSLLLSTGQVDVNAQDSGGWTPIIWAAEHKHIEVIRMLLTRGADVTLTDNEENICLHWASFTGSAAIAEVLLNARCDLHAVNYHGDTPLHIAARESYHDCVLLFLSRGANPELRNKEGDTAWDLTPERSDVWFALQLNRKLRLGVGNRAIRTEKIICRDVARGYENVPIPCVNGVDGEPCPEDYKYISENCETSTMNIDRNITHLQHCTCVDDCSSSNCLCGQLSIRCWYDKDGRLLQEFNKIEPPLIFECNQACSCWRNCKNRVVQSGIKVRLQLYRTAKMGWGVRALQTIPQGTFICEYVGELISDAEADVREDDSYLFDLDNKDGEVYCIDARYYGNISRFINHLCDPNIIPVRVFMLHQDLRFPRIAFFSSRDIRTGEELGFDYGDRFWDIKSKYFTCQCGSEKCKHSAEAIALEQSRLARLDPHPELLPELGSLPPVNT

Structure (SMILES)	activity, negative = inhibition	Potency
Cn1c(C(F)(F)F)nc2c(=O)oc3ccccc3c21	inconclusive: -66.2% [inhibitor] [at 0.0925 µM]	
O=C(Oc1cccc(Nc2ncnc3ccccc23)c1)c1cccnc1		inconclusive: 50.1 µM [inhibitor, partial curve]
Cc1c(NC(=O)c2c(N)sc3c2CCCC3)c(=O)n(-c2ccccc2)n1C		inconclusive: 14.1 µM [inhibitor, full curve, poor fit]
Cc1ccc(C)c(NC2=NCC(=O)N2C2CCCCC2)c1		inconclusive: 10 µM [inhibitor, partial curve, poor fit]
CCc1cccc(NC(=O)CCn2nc(C)cc2C)c1	inactive: 5.45%	
COc1ccccc1-c1noc2ncnc(Nc3cccc(C)c3)c12		inconclusive: 89.1 µM [inhibitor, single point]
COC(=O)c1c(NC(=O)COc2ccc(C(C)C)cc2)sc2c1CCCC2		inconclusive: 0.316 µM [inhibitor, full curve, poor fit]
COc1ccc(N2CCN(C(=O)c3noc4c3CCCCC4)CC2)cc1		inconclusive: 15.8 µM [inhibitor, partial curve, poor fit]
O=C(Nc1nc(-c2ccccn2)cs1)C1CC(=O)N(c2ccc3c(c2)OCCO3)C1 (stereo not given)	inactive: 10.6%	
CCN(CC(=O)NC1CCS(=O)(=O)C1)S(=O)(=O)c1ccc(C)cc1C (stereo not given)	inactive: 23.7%	
O=C(O)c1ccccc1C(=O)Nc1ccc(-c2csc(-c3ccccc3)n2)cc1		inconclusive: 89.1 µM [inhibitor, single point]
Nc1c(N(CCC2=CCCCC2)C(=O)Cc2ccc(F)cc2)c(=O)[nH]c(=O)n1Cc1ccccc1		inconclusive: 70.8 µM [inhibitor, partial curve, poor fit]
S=C(c1ccc(-c2cccc(Cl)c2)o1)N1CCOCC1		inconclusive: 3.16 µM [inhibitor, partial curve, poor fit]
CCC1CCCCN1CCCNC(=O)c1ccc2c(c1)N(Cc1cccc(Cl)c1)C(=O)c1ccccc1S2(=O)=O (stereo not given)		inconclusive: 28.2 µM [inhibitor, partial curve, poor fit]
CN(C)c1c(-c2ccccc2)cc(-c2ccccc2)[nH]c1=O		active: 35.5 µM
O=C(O)c1ccccc1NCN1C(=O)C2CC=C(Cl)CC2C1=O (stereo not given)	inactive: 6.65% [at 2.33 µM]	
CSc1ncccc1C(=O)NC(C)CCc1ccccc1 (stereo not given)		inconclusive: 79.4 µM [inhibitor, single point]
O=C(O)c1nc(NCCc2ccccc2)ncc1Cl		active: 35.5 µM
COc1ccc(C(=O)NCC(c2cccs2)N2CCc3ccccc32)cc1OC (stereo not given)		active: 39.8 µM
O=[N+]([O-])c1ccc(/C=N/Nc2ccccn2)cc1	inactive: 9.76% [at 102 µM]	
CC1CCN(c2ccc(C(=O)OCC(=O)NCCN3C(=O)CSC3=O)cc2[N+](=O)[O-])CC1		inconclusive: 89.1 µM [inhibitor, single point]
O=C1Nc2ccccc2/C1=C\c1cccn1-c1ccc(OC(F)(F)F)cc1	inconclusive: -92.7% [inhibitor]	
COc1ccc(OC)c(C(c2nnnn2Cc2ccco2)N2CCN(C)CC2)c1 (stereo not given)		inconclusive: 56.2 µM [inhibitor, partial curve, poor fit]

Structure (SMILES)	activity, negative = inhibition	Potency
O=C(NCc1ccccc1Cl)c1cnc2n(c1=O)CCS2		active: 56.2 µM
COc1cc2c3c(c1)C1(C(=O)N3C(C)(C)C=C2C)C(C#N)=C(N)Oc2cc(O)ccc21 (stereo not given)		inconclusive: 20 µM [inhibitor, single point]
Cc1ccc([N+](=O)[O-])cc1-c1[nH]c(-c2ccc(O)c(O)c2)nc1-c1ccccc1		inconclusive: 4.47 µM [inhibitor, single point]
CCOC(=O)CSc1nc2c(sc(=S)n2CCc2ccccc2)c(=O)n1Cc1ccco1		inconclusive: 39.8 µM [inhibitor, single point]
O=C(CNS(=O)(=O)c1ccccc1Br)OCC(=O)N1CCc2ccccc21		inconclusive: 79.4 µM [inhibitor, partial curve, poor fit]
COc1cc(C(=O)Nc2cc(Cl)ccc2-n2cncn2)ccc1OC(F)F		inconclusive: 4.47 µM [inhibitor, partial curve, poor fit]
COc1ccc(O)c(/C=N/NC(=S)Nc2cccc(S(=O)(=O)N(C)C)c2)c1		inconclusive: 15.8 µM [inhibitor, single point]
COc1ccc(N2C(=O)CCC(C(C)=O)=C2C)cc1	inactive: 12.2%	
O=C(O)c1cccc(NS(=O)(=O)/C=C/c2ccccc2)c1	inactive: -12.4% [at 102 µM]	
NC(=O)c1ccc(NC(=O)COC(=O)c2n[nH]c3ccccc23)cc1		inconclusive: 7.08 µM [inhibitor, single point]
COC(=O)c1[nH]c2ccc(C)cc2c1NC(=O)CN1CCCC(C)(C)C1	inactive: 5.53% [at 12.7 µM]	
CC1CC(=O)Nc2ccccc2N1C(=O)Nc1ccc(F)cc1 (stereo not given)		inconclusive: 50.1 µM [inhibitor, partial curve]
CCc1ncc(C(O)c2cccc(OC)c2OC)n1C (stereo not given)		inconclusive: 89.1 µM [inhibitor, partial curve, poor fit]
CCSCc1nnc(SCC(=O)Nc2ccc(OC)cc2)n1C	inconclusive: -83.8% [inhibitor]	
Cc1ccc(O)c(CO)n1	inactive: 11.3% [at 102 µM]	
Fc1ccc(Nc2ncnc3ccccc23)cc1		active: 56.2 µM
O=C(Cn1c2[n+](c3ccccc31)CC(O)CS2)c1ccccc1 (stereo not given)		inconclusive: 0.224 µM [inhibitor, partial curve, poor fit]
O=C(C1CC1)N(Cc1ccco1)c1nc(-c2ccccc2)cs1	inconclusive: -63.1% [inhibitor]	
Cc1c(NS(=O)(=O)c2ccc(C(C)(C)C)cc2)c(=O)n(-c2ccccc2)n1C	inactive: -34.2%	
Cc1ccc(C)c(-n2nnnc2SCC(=O)NCC2CCCO2)c1 (stereo not given)	inactive: 8.87%	
C=CCc1c(C)nc(C)nc1N/N=C/c1ccccc1O	inactive: -11.9% [at 12.7 µM]	
CCCCN(Cc1ccco1)C(=O)c1cc2c(=O)[nH]c3ccc(C)cc3c2s1	inactive: 0.327% [at 102 µM]	
